Measured values from a compilation of properties of binary mixtures (doi:10.1021/je970101l).
Some of these densities may be calculated back from excess volumes.

Test: xn = mol fraction of the nth substance listed
Conditions: 298.15 K, 100 kPa

C=COC(C)=O + COC(=O)OC
mass density (x2 = 0.0442): 931.6 kg/m3
mass density (x2 = 0.1007): 939.1 kg/m3
mass density (x2 = 0.1976): 952.1 kg/m3
mass density (x2 = 0.3893): 978 kg/m3
mass density (x2 = 0.4333): 984 kg/m3
mass density (x2 = 0.4874): 991.4 kg/m3
mass density (x2 = 0.5637): 1002 kg/m3
mass density (x2 = 0.6625): 1015.7 kg/m3
mass density (x2 = 0.7073): 1021.9 kg/m3
mass density (x2 = 0.8836): 1046.7 kg/m3
mass density (x2 = 0.9354): 1054.1 kg/m3

CCCCCCOC(C)=O + COC(=O)OC
mass density (x1 = 0.0071): 1060.5 kg/m3
mass density (x2 = 0.038): 872.2 kg/m3
mass density (x2 = 0.1708): 886.2 kg/m3
mass density (x2 = 0.2782): 899.1 kg/m3
mass density (x2 = 0.3601): 910.2 kg/m3
mass density (x2 = 0.4523): 924.1 kg/m3
mass density (x2 = 0.5246): 936.3 kg/m3
mass density (x2 = 0.5891): 948.3 kg/m3
mass density (x2 = 0.6183): 954.1 kg/m3
mass density (x2 = 0.6649): 963.9 kg/m3
mass density (x2 = 0.7362): 980.4 kg/m3
mass density (x2 = 0.7713): 989.3 kg/m3
mass density (x2 = 0.8148): 1001 kg/m3
mass density (x2 = 0.882): 1021.1 kg/m3
mass density (x2 = 0.928): 1036.4 kg/m3
mass density (x2 = 0.9606): 1048.1 kg/m3

CCCCCOC(C)=O + COC(=O)OC
mass density (x1 = 0.0137): 1058.6 kg/m3
mass density (x2 = 0.0504): 877.9 kg/m3
mass density (x2 = 0.1365): 887.7 kg/m3
mass density (x2 = 0.2545): 902.4 kg/m3
mass density (x2 = 0.331): 913 kg/m3
mass density (x2 = 0.424): 927.1 kg/m3
mass density (x2 = 0.4981): 939.4 kg/m3
mass density (x2 = 0.5552): 949.7 kg/m3
mass density (x2 = 0.5964): 957.5 kg/m3
mass density (x2 = 0.6428): 966.9 kg/m3
mass density (x2 = 0.7112): 981.8 kg/m3
mass density (x2 = 0.7551): 992.1 kg/m3
mass density (x2 = 0.7908): 1001 kg/m3
mass density (x2 = 0.9202): 1037.2 kg/m3
mass density (x2 = 0.9507): 1046.7 kg/m3

CCCCOC(C)=O + COC(=O)OC
mass density (x1 = 0.0175): 1058.1 kg/m3
mass density (x2 = 0.1566): 895.5 kg/m3
mass density (x2 = 0.3608): 924.6 kg/m3
mass density (x2 = 0.483): 944.7 kg/m3
mass density (x2 = 0.5687): 960.3 kg/m3
mass density (x2 = 0.6422): 974.9 kg/m3
mass density (x2 = 0.6887): 984.3 kg/m3
mass density (x2 = 0.7305): 993.4 kg/m3
mass density (x2 = 0.8341): 1017.8 kg/m3
mass density (x2 = 0.9177): 1039.7 kg/m3
mass density (x2 = 0.9494): 1048.5 kg/m3

CCCOC(C)=O + COC(=O)OC
mass density (x2 = 0.0151): 885.3 kg/m3
mass density (x2 = 0.1409): 902.4 kg/m3
mass density (x2 = 0.2986): 925.7 kg/m3
mass density (x2 = 0.3624): 935.8 kg/m3
mass density (x2 = 0.4388): 948.4 kg/m3
mass density (x2 = 0.4997): 958.8 kg/m3
mass density (x2 = 0.5412): 966.2 kg/m3
mass density (x2 = 0.5692): 971.3 kg/m3
mass density (x2 = 0.6038): 977.7 kg/m3
mass density (x2 = 0.6518): 986.7 kg/m3
mass density (x2 = 0.7065): 997.7 kg/m3
mass density (x2 = 0.7701): 1010.8 kg/m3
mass density (x2 = 0.8155): 1020.5 kg/m3
mass density (x2 = 0.9049): 1040.5 kg/m3
mass density (x2 = 0.9446): 1049.8 kg/m3
mass density (x2 = 0.9768): 1057.6 kg/m3

CCOC(C)=O + COC(=O)OC
mass density (x2 = 0.0628): 903.7 kg/m3
mass density (x2 = 0.125): 913.1 kg/m3
mass density (x2 = 0.4591): 966.3 kg/m3
mass density (x2 = 0.4946): 972.2 kg/m3
mass density (x2 = 0.565): 984.2 kg/m3
mass density (x2 = 0.58): 986.8 kg/m3
mass density (x2 = 0.6185): 993.4 kg/m3
mass density (x2 = 0.6665): 1001.8 kg/m3
mass density (x2 = 0.7914): 1024.2 kg/m3
mass density (x2 = 0.8767): 1039.9 kg/m3
mass density (x2 = 0.9168): 1047.4 kg/m3

COC(C)=O + COC(=O)OC
mass density (x2 = 0.0129): 928.5 kg/m3
mass density (x2 = 0.0977): 941 kg/m3
mass density (x2 = 0.1167): 943.8 kg/m3
mass density (x2 = 0.1862): 953.8 kg/m3
mass density (x2 = 0.3486): 976.8 kg/m3
mass density (x2 = 0.4149): 986.1 kg/m3
mass density (x2 = 0.4884): 996.2 kg/m3
mass density (x2 = 0.5256): 1001.2 kg/m3
mass density (x2 = 0.5642): 1006.5 kg/m3
mass density (x2 = 0.6279): 1015 kg/m3
mass density (x2 = 0.6847): 1022.6 kg/m3
mass density (x2 = 0.8581): 1045.2 kg/m3
mass density (x2 = 0.9745): 1060.1 kg/m3
